# Some of the results follow. Antibody binding of pooled human sera (four to six donors per pool; dilution not stated) to peptides of the Trypanosoma cruzi antigen TSSA on microarrays. Quantile-normalised fluorescence in arbitrary units, mean of duplicate arrays; higher = more binding. No active / inactive call. The uninfected pools are read here as the healthy donors of the same country. The strongest signals lie near the top of the scale (about 60,000).
# Tested on: pooled sera of uninfected people, Colombia
# Assay: antibody binding signal (normalised fluorescence) (arbitrary fluorescence units); higher = stronger serum antibody binding to peptide
# Method: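 Microarray of 15-residue peptides over residues 30-55 of Trypanosoma cruzi TSSAII, each with 1 to 10 substitutions at naturally variable positions, probed with one serum pool per country.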
row,Sequence,antibody binding signal
1,TENKTATGETPSQPG,238
2,SGTENKPAAGGAPSP,293
3,TPPSGTEKKAATGET,475
4,TDKKPAAGGTPSPSG,251
5,DNKAATGETPSPPGA,139
6,GTDKKPAAGGAPSQP,136
7,GTEKKAAAGGAPSPP,145
8,PSGTEKKPAAGGTPS,376
9,TDKKPATGETPSPPG,156
10,SGKEKKTATGGTPSQ,186
11,GTDKKPAAGGTPSPP,326
12,GTEKKTAAGGAPSQS,203
13,GKEKKPATGEAPSQP,266
14,GTEKKPATGEAPSQP,289
15,SGTDKKAATGETPSQ,667
16,GTDKKTAAGETPSPS,483
17,KEKKAATGEAPSQPG,219
18,TDKKAATGGAPSPPG,764
19,TDNKPAAGETPSQSG,176
20,NKAAAGGAPSPPGAS,777

row,Sequence,antibody binding signal
1,TDNKAAAGGTPSPPG,409
2,PPSGTDNKAATGGTP,343
3,TISTPPSGTEKKPAA,328
4,SGTENKAATGETPSQ,220
5,PPSGKENKAAAGGTP,582
6,TSSTPPSGKDKKTAT,107
7,ENKTATGGAPSQSGA,131
8,KDNKPATGETPSQSG,327
9,GTDKKAAAGETPSPP,244
10,TPPSGTDNKTAAGGA,305
11,PPSGKDNKTATGETP,347
12,GTENKTATGEAPSPP,202
13,DNKAATGETPSQPGA,228
14,TDKKPATGETPSQSG,157
15,KDNKPAAGGTPSPSG,256
16,TEKKTAAGGTPSPSG,293
17,DKKAAAGETPSQSGA,533
18,KEKKAAAGGTPSQSG,108
19,KENKAATGGTPSQPG,178
20,GKEKKAATGGTPSQP,251
